Results: PubChem BioAssay (Tox21)
Values joined by “and” are separate entries in the source; they are usually repeats but may differ in a detail not shown here. Equal entries are not always repeated. The shares of active, inactive and inconclusive entries below differ from those in the screen. A potency beside an inconclusive call is a rough fit, not a confirmed value. Some structures have more than one record in an assay (separate samples or runs), and their calls can disagree. Active and inactive are the calls of the source. Calls follow the shape of the dose curve; as a rule, active = well fitted curve in the direction sought with a large enough effect in the repeat runs; inconclusive = weak or mixed curves; inactive = no such curve, though single readings can be large; an effect the other way counts as inactive or inconclusive.

Legend:
[1] = qHTS RealTime-Glo MT Cell Viability Assay in HEK293 cells - 0 hour (AID 1224880); also: nearly all actives have a fitted effect of over 45% in size
How it was run: (§1)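 600 cells/well were plated with the nonlytic NanoLuc/prosubstrate reagent, pre-incubated 5 h, then given 23 nL of compound in DMSO. Incubation at 37 C for 40 h, with luminescence from viable-cell-reduced substrate read repeatedly from 0 h.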

[2] = qHTS RealTime-Glo MT Cell Viability Assay in HepG2 cells - 16 hour (AID 1224885); also: nearly all actives have a fitted effect of over 50% in size
How it was run: (§2)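 HepG2 cells were seeded at 600 cells/well together with NanoLuc luciferase and a cell-permeant prosubstrate, preincubated 5 h at 37 C/5% CO2, then pin-dosed with compounds in DMSO. Nonlytic luminescence from viable cells was read at each time point.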

[3] = qHTS RealTime-Glo MT Cell Viability Assay in HEK293 cells - 24 hour (AID 1224886); also: nearly all actives have a fitted effect of over 50% in size
How it was run: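 HEK293 cells were seeded at 600 cells/well together with NanoLuc luciferase and cell-permeant prosubstrate, preincubated 5 h at 37 C/5% CO2, then given compound in DMSO by pintool. Luminescence from viable-cell prosubstrate reduction was read repeatedly over 40 h.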

[4] = qHTS RealTime-Glo MT Cell Viability Assay in HEK293 cells - 8 hour (AID 1224887); also: nearly all actives have a fitted effect of over 50% in size
How it was run: as §1

[5] = qHTS RealTime-Glo MT Cell Viability Assay in HepG2 cells - 0 hour (AID 1224889); also: nearly all actives have a fitted effect of over 50% in size
How it was run: as §2

[6] = A CellTox Green Cytotoxicity Assay to monitor cytotoxicity in HepG2 cells - 0 hour (AID 1224882); also: nearly all actives have a fitted effect of over 35% in size
How it was run: (§3)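 HepG2 cells, 600/well, preincubated 5 h with CellTox Green dye, then exposed to Tox21 compounds in DMSO at 37 C for up to 40 h. Dead-cell DNA fluorescence read at the indicated time point.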

[7] = A CellTox Green Cytotoxicity Assay to monitor cytotoxicity in HEK293 cells - 8 hour (AID 1224884); also: nearly all actives have a fitted effect of over 35% in size
How it was run: (§4)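 HEK293 cells, 600/well, were preincubated 5 hours and then exposed to compounds at 37 C for up to 40 hours. A cell-impermeant cyanine dye staining dead-cell DNA was read by fluorescence at 0, 8, 16, 24, 32 and 40 h time points.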

[8] = A CellTox Green Cytotoxicity Assay to monitor cytotoxicity in HEK293 cells - 16 hour (AID 1224888); also: nearly all actives have a fitted effect of over 35% in size
How it was run: as §4

[9] = A CellTox Green Cytotoxicity Assay to monitor cytotoxicity in HEK293 cells - 32 hour (AID 1224881); also: nearly all actives have a fitted effect of over 40% in size
How it was run: as §4

[10] = A CellTox Green Cytotoxicity Assay to monitor cytotoxicity in HepG2 cells - 32 hour (AID 1224883); also: nearly all actives have a fitted effect of over 50% in size
How it was run: as §3
Potency is read from the fitted curve at half-maximal effect; tags tell the direction and shape of the fitted curve.

In the case of `COCCOC(=O)C1=C(C)NC(C)=C(C(=O)OC(C)C)C1c1cccc([N+](=O)[O-])c1` (configuration not stated), the Potency [1] is reported as active: 2.39 µM, the Potency [2] is reported as inconclusive: 10.7 µM [cytotoxic, partial curve] and the Potency [3] is reported as inconclusive: 10.7 µM [cytotoxic, partial curve]. For the same molecule, the Potency [4] was inconclusive: 21.3 µM [cytotoxic, partial curve] and the Potency [5] was active: 0.601 µM.

With `CC1(C)O[C@@H]2C[C@H]3[C@@H]4CCC5=CC(=O)CC[C@]5(C)[C@@]4(F)[C@@H](O)C[C@]3(C)[C@]2(C(=O)CCl)O1` the Potency [1] was inconclusive: 16.9 µM [falling, partial curve], the Potency [3] was inconclusive: 23.9 µM [cytotoxic, partial curve, poor fit] and the Potency [5] was active: 5.35 µM.

In the case of `COc1cccc2c1C(=O)c1c(O)c3c(c(O)c1C2=O)C[C@@](O)(C(C)=O)C[C@@H]3O[C@H]1C[C@H](N)[C@H](O)[C@H](C)O1`, the Potency [1] is reported as inconclusive: 55.3 µM [rising, single point], the Potency [6] is reported as inconclusive: 26.8 µM [activator, single point] and the Potency [7] is reported as inconclusive: 26.8 µM [activator, single point]. For the same molecule, the Potency [4] was active: 15.6 µM and active: 21.3 µM and the Potency [8] was inconclusive: 26.8 µM [activator, single point].

For `CC(=O)/C=C/C1=C(C)CCCC1(C)C`, the Potency [1] was inconclusive: 25 µM [falling, partial curve].

For `CNCC[C@H](Oc1cccc2ccccc12)c1cccs1`, the Potency [1] was inconclusive: 9.52 µM [rising, full curve], the Potency [9] was inconclusive: 26.8 µM [activator, single point] and the Potency [2] was active: 23.9 µM. The Potency [4] was inconclusive: 26.8 µM [cytotoxic, single point], the Potency [8] was inconclusive: 26.8 µM [activator, single point] and the Potency [5] was inconclusive: 21.3 µM [rising, partial curve].

In the case of `CCOC(=O)c1ccc(OC(=O)CCCCCN=C(N)N)cc1`, the Potency [9] is reported as “inactive”.

For `CCCCN`, the Potency [9] was “inactive”.

With `C#C[C@]1(O)CC[C@H]2[C@@H]3CCc4cc(O)ccc4[C@H]3CC[C@@]21C` the Potency [9] was inconclusive: 61.2 µM [activator, partial curve, poor fit] and inconclusive: 8.5 nM [activator, full curve, poor fit], the Potency [6] was inconclusive: 0.0021 µM [activator, full curve, poor fit] and the Potency [10] was inconclusive: 0.0021 µM [activator, full curve, poor fit]. The Potency [7] was inconclusive: 12.2 µM [activator, single point] and inconclusive: 2.1 nM [activator, full curve, poor fit], the Potency [3] was inconclusive: 9.7 µM [cytotoxic, full curve] and inconclusive: 10.7 µM [cytotoxic, full curve] and the Potency [8] was inconclusive: 12.2 µM [activator, single point] and inconclusive: 13.4 nM [activator, partial curve, poor fit].

For `NCCNc1cccc2ccccc12`, the Potency [9] was inconclusive: 54.9 µM [activator, single point] and inconclusive: 53.6 µM [activator, single point], the Potency [10] was inconclusive: 54.9 µM [activator, single point] and active: 53.6 µM and the Potency [7] was inconclusive: 54.9 µM [activator, single point]. For the same molecule, the Potency [2] was inconclusive: 48.9 µM [cytotoxic, partial curve, poor fit] and inconclusive: 53.6 µM [cytotoxic, single point], the Potency [4] was inconclusive: 54.9 µM [cytotoxic, single point] and the Potency [8] was inconclusive: 54.9 µM [activator, single point] and inconclusive: 53.6 µM [activator, single point].

With `O=[N+]([O-])c1cccc(I)c1` the Potency [9] was inconclusive: 12.2 µM [activator, single point] and the Potency [10] was “inactive”.

With `CN(Cc1ccc(C(C)(C)C)cc1)Cc1cccc2ccccc12` the Potency [9] was inconclusive: 26.8 µM [activator, single point].

In the case of `OCCN(CCO)c1nc(N2CCCCC2)c2nc(N(CCO)CCO)nc(N3CCCCC3)c2n1`, the Potency [9] is reported as active: 19 µM, the Potency [6] is reported as active: 23.9 µM and the Potency [7] is reported as active: 21.3 µM. The Potency [3] was inconclusive: 26.8 µM [cytotoxic, partial curve] and the Potency [4] was inconclusive: 26.8 µM [cytotoxic, partial curve].

In the case of `Clc1nc(Cl)c(Cl)c(Cl)c1Cl`, the Potency [9] is reported as inconclusive: 55.3 µM [activator, single point].

In the case of `COC(=O)c1cc(Cl)cc(Cl)c1`, the Potency [9] is reported as “inactive” and the Potency [10] is reported as “inactive”.

In the case of `O=[N+]([O-])c1cc(Cl)c(Cl)c(Cl)c1Cl`, the Potency [9] is reported as inconclusive: 61.4 µM [activator, single point] and the Potency [10] is reported as inconclusive: 21.8 µM [activator, single point].

In the case of `C=CC(C)(CCC=C(C)C)OC(=O)C(C)C` (configuration not stated), the Potency [9] is reported as “inactive”.

In the case of `O=S(=O)(O)c1ccc(Nc2nc(Nc3ccc(/C=C/c4ccc(Nc5nc(Nc6ccc(S(=O)(=O)O)cc6)nc(N(CCO)CCO)n5)cc4S(=O)(=O)O)c(S(=O)(=O)O)c3)nc(N(CCO)CCO)n2)cc1`, the Potency [9] is reported as “inactive”.

For `C[C@@H]1CCN(C(=O)[C@H](CCCN=C(N)N)NS(=O)(=O)c2cccc3c2NC[C@H](C)C3)[C@@H](C(=O)O)C1`, the Potency [9] was “inactive”.

For `CCC(C)c1ccccc1O` (configuration not stated), the Potency [9] was active: 38.6 µM and inconclusive: 54.9 µM [activator, partial curve, poor fit] and the Potency [10] was inconclusive: 54.9 µM [activator, single point].

In the case of `C[C@H](CCC(=O)O)[C@H]1CC[C@H]2[C@@H]3CC[C@@H]4C[C@H](O)CC[C@]4(C)[C@H]3CC[C@]12C`, the Potency [9] is reported as inconclusive: 38.7 µM [activator, partial curve, poor fit] and the Potency [10] is reported as inconclusive: 54.7 µM [activator, single point] and inconclusive: 21.9 µM [activator, single point].

With `O=C(COCCOCCOCC(=O)Nc1c(I)cc(I)c(C(=O)O)c1I)Nc1c(I)cc(I)c(C(=O)O)c1I` the Potency [9] was inconclusive: 15.1 µM [activator, single point].

For `CCOC(=O)C(C#N)=C(c1ccccc1)c1ccccc1`, the Potency [9] was inconclusive: 43.6 µM [activator, partial curve].

With `Oc1ccc(Oc2ccccc2)cc1` the Potency [9] was inconclusive: 46.5 µM [activator, single point].

With `COC(=O)CC(=O)C(C)(C)C` the Potency [9] was “inactive”.

For `Cc1cccc(C(C)(C)C)c1O`, the Potency [9] was inconclusive: 61.7 µM [activator, single point] and the Potency [10] was inconclusive: 49 µM [activator, partial curve, poor fit].

In the case of `C(=C/c1ccccc1)/c1ccccc1`, the Potency [9] is reported as inconclusive: 55.9 µM [activator, single point].

With `CN(CC1(C)CCCO1)S(=O)(=O)c1ccc(Cl)c(S(N)(=O)=O)c1` (configuration not stated) the Potency [9] was “inactive” and the Potency [10] was “inactive”.

For `O=C(Oc1ccccc1)c1ccccc1O`, the Potency [9] was inconclusive: 49.2 µM [activator, single point] and inconclusive: 49 µM [activator, single point] and the Potency [10] was inconclusive: 49 µM [activator, partial curve, poor fit] and inconclusive: 23.9 µM [activator, single point].

In the case of `CCCCCCCCCCCO`, the Potency [9] is reported as inconclusive: 28.2 µM [activator, full curve, poor fit].

For `O=C(O)CCN(C1(C(=O)NO)CCCC1)S(=O)(=O)c1ccc(Oc2ccc(F)cc2)cc1`, the Potency [9] was inconclusive: 0.49 µM [activator, single point].

For `CCn1nc(C)c2c1C(=O)NCC(c1ccc(O)cc1)=N2`, the Potency [9] was “inactive”.

For `Cc1ccc(O)c([C@H](CCN(C(C)C)C(C)C)c2ccccc2)c1`, the Potency [9] was “inactive”.

With `c1ccncc1` the Potency [9] was “inactive”.

With `Nc1ccc2cc3ccc(N)cc3nc2c1` the Potency [9] was active: 43.6 µM and active: 21.3 µM, the Potency [10] was active: 49 µM and active: 21.3 µM and the Potency [7] was active: 49 µM and active: 21.3 µM. For the same molecule, the Potency [2] was inconclusive: 24.5 µM [cytotoxic, partial curve] and inconclusive: 9.52 µM [cytotoxic, partial curve, poor fit] and the Potency [4] was inconclusive: 15.1 µM [cytotoxic, partial curve].

With `O=C1Nc2ccc(Cl)cc2[C@@](C#CC2CC2)(C(F)(F)F)O1` the Potency [9] was inconclusive: 26.8 µM [activator, single point], the Potency [10] was inconclusive: 26.8 µM [activator, single point] and the Potency [7] was inconclusive: 26.8 µM [activator, single point]. For the same molecule, the Potency [2] was inconclusive: 26.8 µM [cytotoxic, single point], the Potency [3] was active: 23.9 µM and the Potency [8] was inconclusive: 26.8 µM [activator, single point].

For `O=C(c1ccccc1)C1CCCCC1`, the Potency [9] was active: 24.5 µM.

For `CCCCc1cc2ccccc2c(OCCN(C)C)n1`, the Potency [9] was active: 21.3 µM, the Potency [10] was inconclusive: 26.8 µM [activator, single point] and the Potency [7] was inconclusive: 19 µM [activator, partial curve, poor fit]. The Potency [3] was inconclusive: 23.9 µM [cytotoxic, single point].

With `COc1ccc2cc1Oc1ccc(cc1)C[C@H]1c3c(cc4c(c3Oc3cc5c(cc3OC)CCN(C)[C@@H]5C2)OCO4)CCN1C` the Potency [9] was inconclusive: 4.25 µM [activator, full curve, poor fit], the Potency [6] was “inactive” and the Potency [2] was inconclusive: 23.9 µM [cytotoxic, partial curve]. The Potency [3] was inconclusive: 5.35 µM [cytotoxic, partial curve], the Potency [4] was inconclusive: 5.35 µM [cytotoxic, partial curve] and the Potency [8] was inconclusive: 3.01 µM [activator, partial curve, poor fit].
